A lower IC50 marks a more sensitive line; where the fit passes the top or lowest dose, that dose stands as a limit. AUC, from the same fit, is the share of area under the viability curve across the 256-fold dose range; values near 1 show little effect. Any top dose called inferred comes from the curve model; the source does not state it. Drugs with an entry number were screened twice under separate entries, and the two screens often disagree.

Compound in the first assay: O=C(c1cc(Cc2n[nH]c(=O)c3ccccc23)ccc1F)N1CCN(C(=O)C2CC2)CC1 [Olaparib]
Briefly: Viability of human cancer cell lines after 72 h of drug (GDSC screen). The following applies: top dose 5 µM; screen: GDSC drug entry 1017; top dose inferred. The protocol:
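Human cancer cell lines in 384-well plates, medium with 10% serum, drug for 72 h over a 256-fold dose range (nine 2-fold or five 4-fold steps up to the top dose). Adherent lines were fixed and stained with the nucleic acid dye Syto60, suspension lines read with resazurin; signal relative to control wells, capped at 0 and 100%. One two-parameter sigmoid per drug and line, fitted in a mixed model over all curves with the slope shared within a line.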
In the case of ACHN (kidney, adherent), the AUC came to 0.96 and the IC50 (in general, the concentration that gives 50% inhibition) is greater than 5 µM.

As to AN3-CA (endometrium, adherent), the AUC came to 0.948 and the IC50 is greater than 5 µM.

Consider BICR22 (head and neck, adherent), for which the AUC was determined as 0.922 and the IC50 was greater than 5 µM.

C3A (liver, adherent): the AUC amounted to 0.988 and the IC50 was greater than 5 µM.

On to CAKI-1 (kidney, adherent), for which the AUC was determined as 0.889 and the IC50 was greater than 5 µM.

Consider Daoy (medulloblastoma, adherent), for which the AUC was 0.985 and the IC50 was greater than 5 µM.

With EFM-19 (breast, adherent), the AUC stood at 0.952 and the IC50 is greater than 5 µM.

Turning to HMV-II (melanoma, adherent), the AUC is 0.974 and the IC50 is greater than 5 µM.

With “HOP-92 (large cell lung carcinoma, adherent)”, the AUC was 0.983 and the IC50 was greater than 5 µM.

In the case of IGR-37 (melanoma, adherent), the AUC was determined as 0.989 and the IC50 was greater than 5 µM.

For JHH-6 (liver, adherent), the AUC was 0.982 and the IC50 was greater than 5 µM.

On to JHOS-4 (ovary, adherent), for which the AUC was determined as 0.979 and the IC50 is greater than 5 µM.

Take JHU-011 (head and neck, adherent): the AUC was 0.944 and the IC50 is greater than 5 µM.

As to “KNS-62 (lung squamous cell carcinoma, adherent)”, the AUC stood at 0.953 and the IC50 was greater than 5 µM.

KYSE-510 (oesophagus, adherent): the AUC amounted to 0.988 and the IC50 was greater than 5 µM.

As for M14 (melanoma, adherent), the AUC is 0.987 and the IC50 was greater than 5 µM.

For ME-180 (cervix, adherent), the AUC amounted to 0.985 and the IC50 was greater than 5 µM.

Regarding MKN45 (stomach, adherent), the AUC is 0.981 and the IC50 is greater than 5 µM.

Mewo (melanoma, adherent): the AUC is 0.978 and the IC50 was greater than 5 µM.

In the case of “NCI-H838 (lung adenocarcinoma, adherent)”, the AUC worked out at 0.987 and the IC50 is greater than 5 µM.

Take “NCI-H2029 (small cell lung carcinoma, adherent)”: the AUC was 0.992 and the IC50 was greater than 5 µM.

Regarding OAW-42 (ovary, adherent), the AUC is 0.965 and the IC50 was greater than 5 µM.

OCUM-1 (stomach, adherent): the AUC worked out at 0.957 and the IC50 is greater than 5 µM.

On to OVCAR-5 (ovary, adherent), for which the AUC turned out to be 0.976 and the IC50 is greater than 5 µM.

As to PA-TU-8988T (pancreas, adherent), the AUC came out at 0.986 and the IC50 is greater than 5 µM.

In the case of PANC-08-13 (pancreas, adherent), the AUC came to 0.965 and the IC50 was greater than 5 µM.

As for RCC-MF (kidney, adherent), the AUC worked out at 0.967 and the IC50 was greater than 5 µM.

On to RMG-I (ovary, adherent), for which the AUC is 0.983 and the IC50 was greater than 5 µM.

Take SAT (head and neck, adherent): the AUC worked out at 0.83 and the IC50 is greater than 5 µM.

For the cell line SK-MEL-24 (melanoma, adherent), the AUC was 0.98 and the IC50 was greater than 5 µM.

With SKN-3 (head and neck, adherent), the AUC was determined as 0.887 and the IC50 was greater than 5 µM.

Take SW756 (cervix, adherent): the AUC was 0.984 and the IC50 is greater than 5 µM.

Consider SW1990 (pancreas, adherent), for which the AUC is 0.977 and the IC50 is greater than 5 µM.

U-266 (myeloma, semi-adherent): the AUC was found to be 0.97 and the IC50 is greater than 5 µM.

As for UM-UC-3 (bladder, adherent), the AUC was 0.987 and the IC50 is greater than 5 µM.

Consider UMC-11 (lung carcinoid, adherent), for which the AUC was 0.991 and the IC50 is greater than 5 µM.

Still in this assay, the particulars now being: top dose 10 µM; screen: GDSC drug entry 1495.
On to ACHN (kidney, adherent), for which the AUC was 0.941 and the IC50 was greater than 10 µM.

On to AN3-CA (endometrium, adherent), for which the AUC was found to be 0.889 and the IC50 was greater than 10 µM.

BICR22 (head and neck, adherent): the AUC is 0.933 and the IC50 is greater than 10 µM.

Regarding C3A (liver, adherent), the AUC is 0.96 and the IC50 is greater than 10 µM.

Consider CAKI-1 (kidney, adherent), for which the AUC stood at 0.922 and the IC50 is greater than 10 µM.

In the case of Daoy (medulloblastoma, adherent), the AUC was determined as 0.777 and the IC50 came out at 3.63 µM.

Consider EFM-19 (breast, adherent), for which the AUC is 0.914 and the IC50 is greater than 10 µM.

Consider HMV-II (melanoma, adherent), for which the AUC worked out at 0.963 and the IC50 is greater than 10 µM.

As to “HOP-92 (large cell lung carcinoma, adherent)”, the AUC is 0.942 and the IC50 is greater than 10 µM.

For the cell line IGR-37 (melanoma, adherent), the AUC turned out to be 0.981 and the IC50 is greater than 10 µM.

Consider JHH-6 (liver, adherent), for which the AUC is 0.894 and the IC50 was greater than 10 µM.

As to JHOS-4 (ovary, adherent), the AUC is 0.893 and the IC50 is greater than 10 µM.

Consider “KNS-62 (lung squamous cell carcinoma, adherent)”, for which the AUC was determined as 0.867 and the IC50 is greater than 10 µM.

Turning to KYSE-510 (oesophagus, adherent), the AUC stood at 0.975 and the IC50 was greater than 10 µM.

Turning to M14 (melanoma, adherent), the AUC came out at 0.922 and the IC50 is greater than 10 µM.

As to ME-180 (cervix, adherent), the AUC stood at 0.956 and the IC50 is greater than 10 µM.

Regarding MKN45 (stomach, adherent), the AUC is 0.961 and the IC50 is greater than 10 µM.

Regarding Mewo (melanoma, adherent), the AUC worked out at 0.945 and the IC50 was greater than 10 µM.

For the cell line “NCI-H838 (lung adenocarcinoma, adherent)”, the AUC is 0.935 and the IC50 was greater than 10 µM.

As to “NCI-H2029 (small cell lung carcinoma, adherent)”, the AUC turned out to be 0.982 and the IC50 is greater than 10 µM.

On to OAW-42 (ovary, adherent), for which the AUC was 0.9 and the IC50 was greater than 10 µM.

For OCUM-1 (stomach, adherent), the AUC stood at 0.936 and the IC50 is greater than 10 µM.

Turning to OSC-19 (head and neck, adherent), the AUC turned out to be 0.917 and the IC50 was greater than 10 µM.

As for OVCAR-5 (ovary, adherent), the AUC is 0.855 and the IC50 is greater than 10 µM.

On to PA-TU-8988T (pancreas, adherent), for which the AUC stood at 0.922 and the IC50 was greater than 10 µM.

With PANC-08-13 (pancreas, adherent), the AUC was 0.931 and the IC50 is greater than 10 µM.

As to RCC-MF (kidney, adherent), the AUC came out at 0.964 and the IC50 is greater than 10 µM.

On to RMG-I (ovary, adherent), for which the AUC turned out to be 0.929 and the IC50 was greater than 10 µM.

For the origin of these results see the supplement of paper PMC4967469.
